The full ranking holds about 33,000 sequences; the median of “E-score (-0.5 to 0.5)” is about -0.016, and the highest 2% start at about 0.31. The list shows a part of the results.
Target: Cst6 (UniProt P40535)
Experiment: PBM E-score (8-mer binding enrichment) (E-score (-0.5 to 0.5)); higher = stronger / more preferred TF binding; most listed sequences are background and not binding sites
Conditions: protein concentration: 200 nM; construct: GST-DNA-binding domain
Procedure, shortened: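 GST-tagged yeast TFs (full-length or DNA-binding domain) were made by PURExpress in vitro transcription/translation and applied at about 100-200 nM to universal all-10-mer Agilent arrays. The arrays were made double-stranded by primer extension, on fresh or once-stripped slides. Bound protein was detected with fluorescent anti-GST, and scans were normalised with masliner. Each ungapped eight-base word, pooled with its reverse complement, received an E-score (modified Wilcoxon-Mann-Whitney statistic) from the Universal PBM Analysis Suite.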

Sequence	PBM E-score
CTAACTTA	0.136
GAACCAGC	-0.0063
ATAGTGTG	0.114
GCACCTGC	-0.114
GGTCAGGA	-0.182
GGATAGCA	0.0197
CTTCCTAC	-0.329
CTGTTAGA	-0.0218
GGGTCTAC	-0.0672
CACGGCAA	0.302
CACAGGGC	-0.0583
AACATCAG	0.183
TACGGAAA	0.052
CGTGCCCA	-0.0527
AAATGGTC	0.0662
TACCGACA	0.075
ATCTCAGC	-0.024
AAAGCCAT	0.171
CGCATTCC	-0.383
GTGAGTGA	-0.00703
ACCCTAAC	0.0817
AATGATAG	0.174
ATCGTTTG	0.101
GCCAAAGC	-0.235
GACTACAC	0.00552

Sequence	PBM E-score
ATCGCAGA	-0.0225
ACTAAGCG	-0.0685
AAAAAACG	0.212
AACCTCCC	-0.307
CGGTGATA	0.121
GGAATTTA	0.171
AAGCAACT	0.00639
CTATCGCC	-0.117
CAGATTCC	-0.155
CGCTAATC	-0.0707
CCGTTAGC	0.0137
ACCAATCT	0.0703
CTGATGAC	0.292
GCGGATGA	0.149
ATACAATA	0.235
ACCCTCGC	-0.131
CATGAGAG	0.0742
AGGCGTTG	0.101
ACACCTCC	-0.135
GTGGATCA	-0.212
GATGTCCA	0.138
TGAGTGAA	-0.122
GTAGGGCA	-0.0114
ATCCCTTG	-0.185
CAAGGAAG	-0.0668

Sequence	PBM E-score
GAGATACC	-0.024
ATCAGAAG	0.0706
AGGCAGCG	-0.188
CACCTCAC	0.0768
CTTGTATC	0.0546
GCCGGACC	-0.239
TACCGCGA	-0.0682
GTGAAAGA	0.181
AGTAGTTG	-0.0108
CTGACCTC	0.0456
AAATCGTG	0.22
GAAAGAGC	0.0402
CCCAAACG	-0.0804
ATGCACGG	0.026
CCCACGGC	0.187
GCAGGCCA	-0.174
GAATATGA	0.177
AGGGTCTA	-0.0972
CATTAGTC	-0.0559
ACCGTTGG	-0.3
ACATGAGG	0.0709
CTTTTACA	0.273
ATCCCACA	-0.17
ACGGGGTC	-0.288
ATTCAGCC	-0.0321

Sequence	PBM E-score
ACGGCGCA	0.349
CGAAAGAC	-0.0399
GGTGTAAC	0.106
CATGCGGA	-0.0527
CCAGGATA	-0.0745
AGTGCACC	-0.0537
ACACACAG	0.107
ACGTTATA	0.31
ATGATGAG	0.232
CGCACCCA	0.0312
CAGCACGC	-0.131
GTCTACTA	0.126
ACAACGGC	-0.0142
ACAACCCA	0.00152
AGTGCATC	0.00383
AAGGGAGG	-0.241
AAGGCGGA	-0.0675
CGTCGACG	-0.104
GTAGTTGA	0.105
GCACCTCA	0.077
CATCTTAA	0.211
CGAGGTAG	-0.349
AACCTGAG	-0.0491
CTCAACGC	-0.0592
AAATGACG	0.466

Sequence	PBM E-score
CGCTTCAG	-0.105
GTACAATA	0.164
TACGGCGA	0.23
AGAGCATC	-0.0634
GGCGGCGA	-0.0549
CCGAGTAC	-0.174
CCTATAAC	-0.0781
AAGTCGTA	-0.0323
ATATATCG	0.228
ACTCCCTG	-0.128
GGGGGCAA	-0.198
CAGACCTC	-0.0708
CAGGGCAA	-0.117
AGTCAACA	0.15
CATCAAGA	0.104
AACGTAAC	0.329
AAAAGTCT	-0.0201
TGAATACA	0.218
CAAAATAG	-0.0783
AGCGACAG	-0.155
AGCATGGA	-0.0241
AGCGACTC	-0.325
GTGGTGTA	0.0521
GCTAGTCA	-0.0571
GGTGAAAA	0.15

Sequence	PBM E-score
CGCAGAGA	-0.0733
AATAAATA	0.39
AGCTCCTG	-0.215
AATAAAGG	0.0727
TGAGTTAA	0.111
CCCAAGAG	-0.164
AGGGCACC	-0.282
AGAAGCCG	-0.0196
GATCTCCC	-0.231
ACAACAAT	0.0902
ATGCAGTC	-0.00946
CACCCGAG	-0.179
ACTTGGCT	-0.2
AGCTATTC	-0.0621
GGCGCTCA	-0.0432
CTAACAGA	0.0449
GTGCATAA	0.0813
GTGGTCCA	-0.0434
ACCAAACT	0.0423
ACCATGAA	0.0849
AGTTGGCC	-0.175
GCTTCCAC	-0.155
ATGCCAGA	0.0534
CGGGCGCC	-0.00681
AATTGAGG	0.0898

Sequence	PBM E-score
AAGATCCT	-0.0251
GCCCAAGA	-0.225
ATATATCA	0.155
ACCGCCTC	-0.223
AAGGCAAC	0.113
ACGGGACA	-0.177
CAGATTTA	0.193
AAGGTCGC	-0.115
ACAGATCT	0.02
CTATTCAG	0.111
AGAGGGGC	-0.279
AATCACCC	-0.00614
GCTGTAAC	0.0807
AAAGATAC	0.191
ATACTCTA	0.0421
GTCGCCGA	0.0105
AACCCGTC	-0.102
GCAGTAAC	-0.065
ACTTCAAC	0.0206
GAGACACA	-0.0694
AAAAACTA	0.22
CTTAGTCC	-0.194
TCACTAGA	0.232
CGTGTGGA	-0.153
TACCGCTA	-0.171

Sequence	PBM E-score
TAGCCGAA	-0.139
AGAACCGC	0.101
AGACACTC	-0.142
CAGTAATG	0.0646
CGTTATAC	0.104
CCTCGGCC	-0.205
ACACCCAC	-0.169
CAAATAAG	0.09
AGTAACTA	0.125
ATTAGATG	0.226
CATTCAAC	0.14
TAAGGGAA	0.0135
CATCCGGC	-0.277
TTAAAGAA	0.146
CTCGCAAC	-0.00192
GCCTACGC	-0.0546
AATAATAG	0.209
CATCGCGC	-0.0406
AAAGTATG	0.0197
CAAAAAAG	0.254
ACGTGGTA	0.0738
GATACCAA	0.058
CTTGACGA	0.00985
TCGTTTCA	0.0851
CGAGTCGA	-0.0258

Sequence	PBM E-score
ACATTGCC	-0.0654
CGGGAGAG	-0.377
AGCGAATC	-0.0537
GATACTCC	-0.0696
GCCTAGAC	-0.224
CAGTATAA	0.17
AAACAGTC	-0.0973
ACACTTAA	0.105
AACCCCGT	-0.104
ATGTAGGG	-0.209
ACTGGATA	0.163
CTTGCTAC	-0.163
ACGTGGTC	0.11
AGTTAATG	0.234
ATTAATCC	0.121
CCCACGCA	-0.0607
TCTGCTAA	-0.00199
ACTCCTCT	-0.18
CTATTCTC	-0.138
CTGGGCAC	-0.196
CATACTAA	0.124
ACTGATAA	0.235
TAGAGATA	0.12
CCGACGTC	0.2
AGGAGGGG	-0.121

Sequence	PBM E-score
GCACATTA	0.0946
AACTCGCA	0.111
AAATTGAA	0.187
CTCACGAA	0.0504
CCTAGCCA	-0.181
ATATGGGA	-0.0946
AAGAGAAC	0.141
CAAAGAAG	0.0502
CCATGGAG	-0.306
GACAGCAC	0.0288
AGCGGGTC	-0.392
GACAGAAA	0.311
CGCAGCAG	-0.0698
GTGCCGAA	0.13
AGGCAGGA	-0.151
AAGAACAG	0.0582
AGTTGTAC	-0.0957
CGAGAGTC	-0.292
CGGCTTAC	0.0799
AAGGAAAT	0.165
ATCTGTCC	-0.106
ACACCCGT	-0.172
GTCCGAAA	0.163
CGCAAGGA	-0.158
GGGCTATA	-0.21

Sequence	PBM E-score
AGTGTGTC	0.0534
CGAACAAG	-0.0308
ATTAGAGA	0.116
GCATGATA	0.122
CCAGTCAG	-0.162
ACCACTAA	0.138
ACGACAAT	0.128
AAGGTGGT	-0.0498
GCGGCACC	0.311
CGCTCTTA	0.172
CTGACCCA	-0.295
CCCGTTGC	-0.177
GCTGCGAC	-0.186
GCAAGTTA	0.0542
TGTGCACA	-0.076
CAACGTAG	0.0788
ATACGACG	0.0843
GCAGACGA	-0.128
CCGTTAGA	0.0721
AAGTTAGC	0.0182
ATATTCCG	0.0507
CGCGGAGC	-0.23
CATAGTGC	-0.00152
GGTTTGAA	0.14
TATATAGA	0.232

Sequence	PBM E-score
AGGTGCGG	-0.0628
GGTGCACA	-0.05
ATCGAAAG	0.0837
AAGACAGA	0.147
AAACATTT	0.127
GTTCGAAC	0.2
CTTAAGGA	-0.0903
ATGCTCTC	-0.249
ACGTGGCG	0.129
ATACCCGC	0.164
CTACGGGA	-0.264
AGTCGAAG	-0.0655
ACCTCGCT	-0.00948
ACCGCACT	-0.0604
CCTATTTA	-0.0607
AGGAACCC	-0.362
AATAACAG	0.218
CAACAGGA	-0.183
CCCTGGAC	-0.262
GCCTATTA	0.12
CACGACAG	-0.0272
CATGAACA	0.177
AATTCTCC	-0.109
GCCACCCC	-0.249
ACAGACGT	0.0849

Sequence	PBM E-score
CACATATA	0.136
CATTGATA	0.115
TGAAGTCA	0.372
AGCCCGTC	-0.245
AAAACGAA	0.214
CGGATGCC	0.0864
AATATTGG	0.0316
AATGGTTG	0.156
AGGCCGCG	-0.0421
CAAACTCG	-0.131
AGTATGAG	0.0817
CGTTAGAC	0.00283
ATTCGCAC	-0.0389
GATAGAGA	-0.0352
ACCGGAAT	-0.258
GAACGGAA	-1e-05
CAAATGAG	0.0889
AGCTCATA	0.124
ACACAACT	0.0608
AGCATTGA	0.0164
TTCGTAAA	0.23
AGGGAGCA	-0.335
CTGTAGGA	-0.0316
AAGAGGCG	0.0602
AGAGCCAC	-0.0666

Sequence	PBM E-score
AAGCACTT	-0.105
GCCTAGCC	-0.215
CGTGACCA	-0.0809
GCCCGTGA	-0.0557
GCGAGCCC	-0.227
AATAGTCG	-0.00096
CGGTAACA	0.16
CCTAGATA	-0.271
GTGGACTA	-0.0092
GGCAGGCA	-0.193
CCTCAAGC	-0.221
AAGCGGTG	-0.147
CAAATAAA	0.197
ACGCGCCT	0.0749
GTGCGGGA	-0.183
CCCATGAC	0.336
AAGGTATT	0.083
AAAACGTT	0.0179
ACCGGATA	-0.0988

Reference: the supplement of paper PMC3334620
